Measured values as given in PubChem BioAssay AID588855 (National Center for Advancing Translational Sciences (NCATS), 2011).
Screen size: about 410,000 compounds; about 5,000 (1.2%) were called active. Inconclusive results, whose numbers are uncertain, are shown with a selection of clear calls. The call rests on the fitted dose curve; in most records, active means well fitted inhibition curve with a large enough effect; inconclusive means small, poorly fitted or top-dose-only effect; inactive means no such curve, though single readings can be large or run the other way. A potency beside an inconclusive call is a rough fit, not a confirmed value.

Assay: qHTS for Inhibitors of TGF-b; further: nearly all actives have a fitted effect of over 65% in size
Details: HepG2 CAGA-GFP TGF-b/SMAD3 reporter, GFP fluorescence, 18 h, TGF-beta stimulated, 500 pg/mL final; series mostly up to 46.1 µM
Procedure, shortened: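 First, reporter cells (HEPG2 CAGA-GFP) rested 2 h at 37 degrees C. Next, compounds were pinned in and TGF-beta added to 500 pg/mL final. After 18 h, GFP was imaged per cell and summed per well.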
Potency means the concentration at half of the fitted maximal effect; tags describe the fitted curve by direction and shape.

SMILES | Potency
COc1ccc(N(S(=O)(=O)c2ccccc2)S(=O)(=O)c2ccccc2)c(N)c1 | inconclusive: 1.41 µM [inhibitor, partial curve]
N/C(=N\OC(=O)N1CCOCC1)c1ccc(Cl)cc1 | inactive
COc1cc(-c2noc(-c3ccc(NCc4ccccc4)c([N+](=O)[O-])c3)n2)cc(OC)c1OC | inconclusive: 6.31 µM [inhibitor, single point]
Fc1ccc2nc(Nc3nc4c(F)cc(F)cc4s3)sc2c1 | inconclusive: 5.62 µM [inhibitor, single point]
O=C(C[n+]1ccccc1)NNc1ccccc1 | inconclusive: 0.158 µM [inhibitor, full curve, poor fit]
CCOc1ccc(NC(=O)CCNS(=O)(=O)c2ccc3c(c2)oc(=O)n3C)cc1 | inconclusive: 6.31 µM [inhibitor, single point]
CCN(CC)CCN1C(=O)C(=O)/C(=C(/O)c2ccc(OC)cc2)C1c1ccco1 (centres undefined) | inconclusive: 20 µM [inhibitor, single point]
COc1ccc(-c2ocnc2C(=O)N2CCN(C(c3ccccc3)c3ccccc3)CC2)cc1 | inconclusive: 20 µM [inhibitor, single point]
COc1cccc(-c2cnc3c(NC=O)cc(-c4cccc(NC(C)=O)c4)cn23)c1 | active: 7.08 µM
O=C(CSc1ncc(C(F)(F)F)cc1Cl)N1CCN(S(=O)(=O)c2ccc3ccccc3c2)CC1 | inconclusive: 15.8 µM [inhibitor, single point]
c1ccc(Sc2nc(N3CCCCC3)nc(N3CCCCC3)n2)nc1 | inconclusive: 0.112 µM [inhibitor, full curve, poor fit]
COc1ccccc1CNS(=O)(=O)c1cc(C)ccc1OC | inactive
O=C(Nc1cccc(S(=O)(=O)N2CCOCC2)c1)c1ccc(Cl)nc1 | inconclusive: 25.1 µM [inhibitor, single point]
C=C1C[C@@]23CCC4[C@@](C)(CCC[C@@]4(C)C(=O)O)C2CC[C@]1(O)C3 (some centres undefined) | inconclusive: 0.891 µM [inhibitor, full curve, poor fit]
COc1ccc(CC(=O)NCc2nnc(SCCOc3ccccc3)n2C)cc1 | inconclusive: 20 µM [inhibitor, single point]
Cc1ccc(-c2nnc(Nc3ccc(O)cc3)c3ccccc23)cc1S(=O)(=O)N1CCN(C)CC1 | active: 10 µM
Cc1ccc(C2=NS(=O)(=O)N(C)C(C(=O)Nc3cc(C)n(CC(=O)N4CCC(C)CC4)n3)=C2)cc1 | inconclusive: 14.1 µM [inhibitor, single point]
COc1cccc(C(=O)COc2cccc(NC(=O)c3ccco3)c2)c1 | inactive
Cc1ccc(C(C(=O)NCc2ccco2)N(C(=O)Cn2nnc3ccccc32)c2ccccc2)o1 (centres undefined) | inconclusive: 0.251 µM [inhibitor, full curve, poor fit]
C(=NN=C1c2ccccc2-c2ccccc21)c1ccc2c(c1)OCO2 | inactive
CN(C)CCCN(C(=O)COc1ccccc1)c1nc2cc3c(cc2s1)OCCO3 | inconclusive: 11.2 µM [inhibitor, partial curve, poor fit]
CCN(CC(=O)NCc1cccs1)C(=O)c1ccc(S(=O)(=O)Nc2ccccc2C)cc1 | inactive

SMILES | Potency
CC(=O)N1CCN(c2ccc(NC(=O)c3ccc(Br)o3)cc2Cl)CC1 | inactive
CC(C)(C)OC(=O)NCCCCCNC(=O)c1[nH]cnc1C(=O)N[C@@H](Cc1ccccc1)C(=O)OCc1ccccc1 | inconclusive: 15.8 µM [inhibitor, single point]
Cc1ccc(NC(=O)c2ccc(-c3nn(C)c(=O)c4ccccc34)cc2)cc1 | inactive
COc1ccc(OC)c(CCNC(=O)c2ccc3c(c2)N(Cc2ccc(C)cc2)CCS3)c1 | inconclusive: 0.282 µM [inhibitor, full curve, poor fit]
Cc1ccc(-c2nn(-c3ccccc3)cc2/C=C/C(=O)Nc2cccc(S(N)(=O)=O)c2)cc1 | inconclusive: 35.5 µM [inhibitor, single point]
Cc1ccc(Cn2nnnc2CN2CCC(O)(c3cccnc3)CC2)cc1 | inactive
COc1cc(C(=O)NCC(c2cccs2)N2CCOCC2)cc(Br)c1OCc1ccccc1 (centres undefined) | inconclusive: 35.5 µM [inhibitor, single point]
CCN(CC)c1ccc2oc(=O)c(C)nc2c1 | inconclusive: 20 µM [inhibitor, single point]
CCOc1ccc(-c2nonc2NC(=O)c2oc3c(C)c(C)ccc3c2C)cc1OCC | inconclusive: 8.91 µM [inhibitor, partial curve]
CCOc1ccccc1NC(=O)c1cccc(NC(=O)C(C)C)c1 | inconclusive: 35.5 µM [inhibitor, single point]
O=C(OCCOCCN=C1NS(=O)(=O)c2ccccc21)c1ccncc1 | inconclusive: 0.891 µM [inhibitor, full curve, poor fit]
CC1CCCC(C)N1C(=O)Cn1c(=O)sc2ccccc21 (centres undefined) | inactive
CC(C)n1c(O)c(/C=C2\C=NN=C2c2ccccc2)sc1=S | inconclusive: 11.2 µM [inhibitor, partial curve, poor fit]
C=C(C)COc1ccc(-c2ncncc2-c2ccc(Cl)cc2)c(O)c1 | inconclusive: 31.6 µM [inhibitor, single point]
Cc1ccc(S(=O)(=O)N(Cc2cc3cccc(C)c3[nH]c2=O)c2ccccc2)cc1 | inconclusive: 5.62 µM [inhibitor, single point]
O=C(NNC(=O)c1ccc2c(c1)OCO2)NC12CC3CC(CC(C3)C1)C2 | inconclusive: 0.112 µM [inhibitor, full curve, poor fit]
CC(C)(C)NC(=O)C[C@H]1C[C@H](C(=O)N2CCCCC2)[C@@]2(C)c3[nH]c4cc(-c5ccco5)ccc4c3CCN2C1=O | inconclusive: 35.5 µM [inhibitor, single point]
Cc1ccnc(NC(=O)C2CCC(CNc3c(N4CCCC4)c(=O)c3=O)CC2)c1 (centres undefined) | inconclusive: 35.5 µM [inhibitor, single point]
Cc1ccccc1NC(=O)CSc1nnc(C)c(=O)[nH]1 | inactive
Cc1ccc(NC(=O)CNC(=O)c2cccs2)cc1S(=O)(=O)Nc1ccc(Cl)cc1 | inconclusive: 14.1 µM [inhibitor, single point]
O=C(Nc1ccccc1)c1cc(C2CCCCN2C(=O)CCc2ccccc2)on1 (centres undefined) | inactive
Cc1cc(C)cc(OC(C)C(=O)Nc2nonc2-c2ccc(Br)cc2)c1 (centres undefined) | active: 15.8 µM

SMILES | Potency
CCN1C(N(C)CCc2c[nH]c3ccccc23)=N[C@@H](c2cccc(C(F)(F)F)c2)C(C(=O)OC)=C1C | inconclusive: 31.6 µM [inhibitor, single point]
COC(=O)c1cc(NC(=O)CN(c2cccc(OC)c2)S(=O)(=O)c2ccccc2)ccc1Cl | inconclusive: 22.4 µM [inhibitor, single point]
Cc1cc(C)c(C#N)c(Sc2nc(C)c([N+](=O)[O-])c(C)c2C#N)n1 | inconclusive: 25.1 µM [inhibitor, single point]
COc1ccc(NC(=S)N2CCN(C/C=C/c3ccccc3)CC2)cc1OC | inconclusive: 6.31 µM [inhibitor, single point]
O=C(NCCN1C(=O)S/C(=C\c2ccc(Cl)cc2)C1=O)c1ccc(F)c(S(=O)(=O)N2CCOCC2)c1 | inconclusive: 15.8 µM [inhibitor, partial curve, poor fit]
O=C(NCCc1c[nH]c2ccccc12)C(=O)Nc1ccccc1 | inactive
COc1ccc(C(CNC(=O)c2cccc(S(=O)(=O)N3CCOCC3)c2)N2CCOCC2)cc1 (centres undefined) | inconclusive: 35.5 µM [inhibitor, single point]
CCN(CC)c1nc(SCCOC(=O)Nc2ccccc2)nc(N(CC)CC)n1 | inconclusive: 0.562 µM [inhibitor, full curve, poor fit]
Cc1[nH]n(-c2ccccc2)c(=O)c1C=Nc1cccc2cccnc12 | inconclusive: 3.98 µM [inhibitor, partial curve, poor fit]
CCc1ccc(CN(Cc2ccco2)C(=O)c2ccc(OC)cc2)cc1 | inactive
NS(=O)(=O)c1ccc(CCNC(=O)C(=O)NCC2OCCN2S(=O)(=O)c2ccc(F)cc2)cc1 (centres undefined) | inactive
O=S(=O)(Nc1cccc(-c2ccc(N3CCCC3)nn2)c1)c1ccccc1C(F)(F)F | inconclusive: 35.5 µM [inhibitor, single point]
COc1cccc(C2CC(c3cccc(NS(C)(=O)=O)c3)=NN2C(=O)c2ccccc2)c1OC (centres undefined) | inconclusive: 6.31 µM [inhibitor, single point]
CCN1CCN(c2ccc(N=Cc3ccccc3O)cc2)CC1 | inactive
O=C(Nc1ccc(Nc2ccccc2)cc1)c1ccccc1 | inactive
CC1=C(C(=O)N(C)C)C(c2cccc(Cl)c2)NC(=O)N1 (centres undefined) | inconclusive: 3.16 µM [inhibitor, single point]
Cc1ccc(SCCN2CCC(C)CCC2=O)cc1 (centres undefined) | inconclusive: 35.5 µM [inhibitor, single point]
CN(C)c1cc2c(cc1NC(=O)c1ccccc1Cl)n(C)c(=O)n2C | inconclusive: 11.2 µM [inhibitor, partial curve]
Fc1cccc(NC(=S)NNc2c3ccccc3nc3ccccc23)c1 | inconclusive: 11.2 µM [inhibitor, partial curve, poor fit]
CCCc1ccc(C(C)NC(=S)NC2CCCCC2)cc1 (centres undefined) | inconclusive: 35.5 µM [inhibitor, single point]
